Laboratory results from PMC12136788.
This is one part of the list.

B1: chr2:173053163:173053164:-_ENSMUSG00000038400_ENSMUST00000036248|mus_hu|FALSE|FALSE (ssRNA)
RNA: GGGAGUUCUACAGUCCGACGAUCGUGCAUUCAGACCAGACAUCACAUGUAAAUAUUUAUACACAGGGAGGUGGGAGGGGAGGGCCACACGAUGCGUUGCUGCGCCCCCCGCCUUCCUCUCACUCCUCUUCUAAGAAGCGCGGACAACAGAGGAUUGAGCAUCA
B2: chr3:9412954:9412955:+_ENSG00000134077_ENST00000452837|hu_mus|hu_hu_hu_mus_False|8_28 (ssRNA)
RNA: GGGAGUUCUACAGUCCGACGAUCGGUUGAUAUCUCUUCUUUGAUGGCUGGAUUUUCAUAAUAGUCCAAGAUAUGUGAAUCUGAAGUGCUGCUGGCAUGCUUUUUCUUAACAUUUCUCUCAUCUGCUUUGACUUCUUGUCCACACAACAGAGGAUUGAGCAUCA
B3: chr11:77340908:77340909:-_ENSG00000074201_ENST00000525064|hu_hu|hu_hu_hu_mus_True|38_38 (ssRNA)
RNA: GGGAGUUCUACAGUCCGACGAUCGUUUGGAUCCCUGGACACCGCAUGUAAACUAAUGGUGGGGUAUUCCAGUGAGAAUCCUAAUCCCGAACCAUCUAACCAAGACAGGCGGCUCUCCGCGAUGUAAAGCGUGCCGGUGCCGAGCAACAGAGGAUUGAGCAUCA
B4: chr19:36949789:36949790:+_ENSMUSG00000024811_ENSMUST00000025729|mus_mus|FALSE|FALSE (ssRNA)
RNA: GGGAGUUCUACAGUCCGACGAUCAUGUAAAGGAAUGAGUCCUCCUUUGUCCUGGGCAUUCACAUCAGCUCCAUGUUGCAAUAAAUACUCAGCAACUUCCAAGUUAUUAUAACCAGCUGCCAAAUGUAAAGGUGUAGAAUGCCGCAACAGAGGAUUGAGCAUCA
B5: chr2:42472670:42472671:+_ENSG00000143924_ENST00000318522|hu_hu|motif|central (ssRNA)
RNA: GGGAGUUCUACAGUCCGACGAUCCGUGACUCAAGAGCUGACAGGCGAUCUUGAACAUCAGAAGUACUUGCAGCAGAAAUACGGUCAUCGAGACUGCCGGCGAAACCGUCCAUCUUGCGGGGAAAGCGCCGGGCUCCGGGCUUACAACAGAGGAUUGAGCAUCA
B6: chr2:179988524:179988525:-_ENSG00000187231_ENST00000428443|hu_mus|motif|central (ssRNA)
RNA: GGGAGUUCUACAGUCCGACGAUCUAAAGUUUGCUGAAUCGAUGCUCCAUCAGCUGGUGCUACAUCUACGCACAACAUCCCGGAUAAGCCGUCCAACUGCUGAGACAAAUCUUGGGCCACACCAUGAAAUUCCAAAGCUGCCUGCAACAGAGGAUUGAGCAUCA
B7: chr9:37780755:37780756:-_ENSG00000107371_ENST00000396521|hu_hu|FALSE|FALSE (ssRNA)
RNA: GGGAGUUCUACAGUCCGACGAUCGCCAAUCUGGAGAAGAUCUGUUUUCUUUGAUCUGACGUCAUGUGUUCACAAGCUUCUAAAAUGUUUGCCAAAAUUAAAGUCUGCUGGAUGGUUUUUGCCUUAACCCAUAUUCUUCCAUUCCAACAGAGGAUUGAGCAUCA
B8: chr2:216981417:216981418:+_ENSG00000079246_ENST00000392132|hu_hu|hu_hu_hu_mus_True|18_38 (ssRNA)
RNA: GGGAGUUCUACAGUCCGACGAUCCUGAUACUGGUCCUUGCCAGCAAGGGCAUUAUCAGUGCCAUCUGUGCCAUAGAGGACUAACGCAAUCUCAUCUUUGUUCUCAGAAAAUACCUGUCGCUGUACAAACAUAGUCAUCACUUUCAACAGAGGAUUGAGCAUCA
B9: chr10:33214929:33214930:-_ENSG00000150093_ENST00000302278|hu_hu|hu_hu_hu_mus_True|8_8 (ssRNA)
RNA: GGGAGUUCUACAGUCCGACGAUCAACAAGUUCAUUGAAAAACUCUCCUCUGUCAGUAAGACUAAGCACAUUUUUGUAGCUAAAUGGGCUGGUGCAGUUUUGUUCACUUGUACAAGGAUUUCUUAGCUUAGCUGGUGUUGUGCUCAACAGAGGAUUGAGCAUCA
B10: chr14:78183846:78183847:+_ENSG00000119705_ENST00000557342|hu_hu|hu_hu_hu_mus_False|38_68 (ssRNA)
RNA: GGGAGUUCUACAGUCCGACGAUCUCUCAGAAAUCUUUCUUCAUCAGAUGUUUGAGCUCCGUGCAAAAGUUUUGGCCUUUGAGCUUGAACGUGGAUCUUUACUCCAUAAAGCACUGUCAGAAAAGGUAAUUUUUUUUUUAAAGACAACAGAGGAUUGAGCAUCA
B11: chr8:74529624:74529625:-_ENSG00000040341_ENST00000355780|hu_hu|FALSE|FALSE (ssRNA)
RNA: GGGAGUUCUACAGUCCGACGAUCGAGGGCUUUCAUUGCAGCAUUGUGUCUAGCAGCUUGUCGAGUCUUUCCUUCCCCAAAAAAUUCAUUAUUUCCUACAGUGAGCUGAACAUAAAAGAUCUUAGGCACUGGGCAAUGAUACCUCAACAGAGGAUUGAGCAUCA
B12: chr5:145543945:145543946:-_ENSG00000133706_ENST00000545646|hu_hu|hu_hu_hu_mus_True|1_1 (ssRNA)
RNA: GGGAGUUCUACAGUCCGACGAUCCUGAACGGCCAGUGGUGGGAAAUAAUCAAGCCAGUGCUCUGCUUCAGAAAACUUCACUAUGUCGUCAUCAGAGAGCCCAAGGGAUUUCAUAAUGUCCCACUGGUACUUAGAAGAUCCAGCCAACAGAGGAUUGAGCAUCA
B13: chr22:42024162:42024163:+_ENSG00000196419_ENST00000405878|hu_mus|motif|central (ssRNA)
RNA: GGGAGUUCUACAGUCCGACGAUCUUCAUCUUCACCCUGAGAUUCGAACAUAGCCCUGGAGGCAUCAACCAGAAAAAUCAAGCGGUCUCUUCCUGAAUAUUUAUAUUCUCCACCUGUGUCGGGGCUCUCCUCCUCCUCUUCCUCCAACAGAGGAUUGAGCAUCA
B14: 214822017_214822137_8058_CDS_ENSG00000117724_ENST00000366955|human|control|control (ssRNA)
RNA: GGGAGUUCUACAGUCCGACGAUCCAACUCUCCAGCUAGCCUAUUUUUCUCUCCACUGAGUUCUUCUUGCAGCUCUGCUGUUUUCUGUGCCAUCUCAUGCAUUUCCCUCUGCAGCUCAGUUUCCUUUGCAGUCAUUUUGUUUACCAACAGAGGAUUGAGCAUCA
B15: chr2:73747422:73747423:-_ENSMUSG00000018770_ENSMUST00000018914|mus_mus|motif|central (ssRNA)
RNA: GGGAGUUCUACAGUCCGACGAUCCAGCUGACACACACCAUUCUGGGCCCCAUUAAAAACUGUAGAGCCCUCUCCAGUCCGGGUCUCUGGCCGAGAUAACACUGAUGCAGAAAUUGGUCUAUAUGCAACUCUGGAUCCAGCUCGCAACAGAGGAUUGAGCAUCA
B16: chr17:4848066:4848067:+_ENSG00000108523_ENST00000575111|hu_mus|FALSE|FALSE (ssRNA)
RNA: GGGAGUUCUACAGUCCGACGAUCAGUUUCUUCUUCCUGCUCCUCAUCGCCAGGACCCCGAUGUACAGGCUGUUUGCAGAUGGGGCAGGUCUUGCGGGUCUGAGUGAGCCAGGGGUCCACACAGCGACUGUGAUAAGCAUGAGCCAACAGAGGAUUGAGCAUCA
B17: chr11:77336104:77336105:-_ENSG00000074201_ENST00000525064|hu_mus|hu_hu_hu_mus_False|8_88 (ssRNA)
RNA: GGGAGUUCUACAGUCCGACGAUCCUCACACAUUGCUGUGAACAUCGCCUCCAACGCUGACUUAUCACUGGGCACAAAUCGAAAUUCAGAAAUGGGUUCAACAUCAUCAUUGUCUUCCUCAUCUUCAUCAUCAGCAAGUUCUUUCAACAGAGGAUUGAGCAUCA
B18: chr7:54823571:54823572:-_ENSG00000132432_ENST00000352861|hu_hu|motif|central (ssRNA)
RNA: GGGAGUUCUACAGUCCGACGAUCUCCCAUUAUAGCAAAUCCUAUUGCUGUUGCCAUGGCAAUCUUCUGGAAUUCUUUUCGGUCAGGUUUAGUGCAUCUUUUAACCAGCCGAAUGGAGUCCUUUACAAACUGCCGACUUGGCUCCAACAGAGGAUUGAGCAUCA
B19: chr2:65860617:65860618:+_ENSMUSG00000044647_ENSMUST00000122912|mus_mus|FALSE|FALSE (ssRNA)
RNA: GGGAGUUCUACAGUCCGACGAUCGAGCUGGCUAGGAGUUCCUGGGAUGUGACUAUCUAUUUGGUAGUAGAGAGUUGAAGAGCUAGCGUAAAAUGAAGCAUUUUUUGUGUGGCUUUCAUGAACUGCGGUGCCAUCAGAGUAACACAACAGAGGAUUGAGCAUCA
B20: chr7:65705475:65705476:+_ENSG00000169902_ENST00000304842|hu_hu|hu_hu_hu_mus_True|98_108 (ssRNA)
RNA: GGGAGUUCUACAGUCCGACGAUCUCUAUCCGGUGAUGGCAUUCCAUGGCAUGCUGGCCCAGGUAAAACACGGUCACAGAACUAAUCACCAGACACGCCAAGAGUAAGUUCUGCUUCAGCUUCCCAACCAUCUUGAUGUGGUUACAACAGAGGAUUGAGCAUCA
B21: chr1:202705475:202705476:-_ENSG00000117139_ENST00000367264|hu_mus|FALSE|FALSE (ssRNA)
RNA: GGGAGUUCUACAGUCCGACGAUCCAAUCUUGGUAAAGAAUUGAGAUGUACUGGGAUAGAUCGGCCUCUUGCAACAAGUUCAAUGAGUGUCUCUAACACUGGCACACGUCCUCCUGCCUGCAAUGCAUCCACAUCCUGAACCCACAACAGAGGAUUGAGCAUCA
B22: chr17:17165348:17165349:-_ENSG00000141030_ENST00000268717|hu_hu|FALSE|FALSE (ssRNA)
RNA: GGGAGUUCUACAGUCCGACGAUCAAUUUGAGAUGUAUAUUUUGGUAGCUGUUGUACUUUGCCAAGUAAUAUCAAAGACACUAAAAUAUACUUUUUAUAUGAUUCCAACAUGAUAUGACUGACCGCCAUGGCAGGAGUAGUUAUCAACAGAGGAUUGAGCAUCA

What follows are binders tested against T1, UNK ZnF1-3 (human, UniProt Q9C0B0 31-174) (assay: nsRBNS (natural sequence RNA bind-n-seq); RBNS binding buffer (assumed for nsRBNS): 25 mM Tris pH 7.5, 150 mM KCl, 3 mM MgCl2, 0.01% Triton X-100, 500 ug/ml BSA, 20 U/ml SUPERase-In, 4 C; UNK is unkempt and MSI1 is Musashi-1; names of the RNAs are library labels; protein concentration not given here; high values mean tight binding).
T1 sequence: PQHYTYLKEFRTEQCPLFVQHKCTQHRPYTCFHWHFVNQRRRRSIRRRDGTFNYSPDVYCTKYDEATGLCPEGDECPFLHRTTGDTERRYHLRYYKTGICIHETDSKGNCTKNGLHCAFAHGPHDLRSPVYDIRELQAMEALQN

| Binder | binding signal [enrichment R] |
| --- | --- |
| B1 | 0.678 |
| B2 | 0.312 |
| B3 | 0.716 |
| B4 | 0.603 |
| B5 | 1.37 |
| B6 | 1.12 |
| B7 | 1.08 |
| B8 | 0.783 |
| B9 | 0.941 |
| B10 | 1.14 |
| B11 | 1.49 |
| B12 | 1.33 |
| B13 | 1.55 |
| B14 | 0.348 |
| B15 | 1.43 |
| B16 | 1.02 |
| B17 | 1.17 |
| B18 | 0.604 |
| B19 | 0.988 |
| B20 | 0.461 |
| B21 | 1.11 |
| B22 | 0.577 |
